Laboratory results as given in paper PMC4336329 (PLoS ONE, 2015).
Out of some 310,000 compounds screened, about 14,000 (4.5%) showed an effect of 50% or more. The effect is printed as a negative number. The list shows a part of the results.

What follows are compounds tested against human ether-à-go-go-related gene (hERG) potassium channel (human, UniProt Q12809) (assay: primary screen, population patch clamp on CHO cells stably expressing hERG).
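Note: peak tail current of the secondary pulse compared with the same well before compound.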

Chain of human ether-à-go-go-related gene (hERG) potassium channel (Q12809 whole entry, looked up): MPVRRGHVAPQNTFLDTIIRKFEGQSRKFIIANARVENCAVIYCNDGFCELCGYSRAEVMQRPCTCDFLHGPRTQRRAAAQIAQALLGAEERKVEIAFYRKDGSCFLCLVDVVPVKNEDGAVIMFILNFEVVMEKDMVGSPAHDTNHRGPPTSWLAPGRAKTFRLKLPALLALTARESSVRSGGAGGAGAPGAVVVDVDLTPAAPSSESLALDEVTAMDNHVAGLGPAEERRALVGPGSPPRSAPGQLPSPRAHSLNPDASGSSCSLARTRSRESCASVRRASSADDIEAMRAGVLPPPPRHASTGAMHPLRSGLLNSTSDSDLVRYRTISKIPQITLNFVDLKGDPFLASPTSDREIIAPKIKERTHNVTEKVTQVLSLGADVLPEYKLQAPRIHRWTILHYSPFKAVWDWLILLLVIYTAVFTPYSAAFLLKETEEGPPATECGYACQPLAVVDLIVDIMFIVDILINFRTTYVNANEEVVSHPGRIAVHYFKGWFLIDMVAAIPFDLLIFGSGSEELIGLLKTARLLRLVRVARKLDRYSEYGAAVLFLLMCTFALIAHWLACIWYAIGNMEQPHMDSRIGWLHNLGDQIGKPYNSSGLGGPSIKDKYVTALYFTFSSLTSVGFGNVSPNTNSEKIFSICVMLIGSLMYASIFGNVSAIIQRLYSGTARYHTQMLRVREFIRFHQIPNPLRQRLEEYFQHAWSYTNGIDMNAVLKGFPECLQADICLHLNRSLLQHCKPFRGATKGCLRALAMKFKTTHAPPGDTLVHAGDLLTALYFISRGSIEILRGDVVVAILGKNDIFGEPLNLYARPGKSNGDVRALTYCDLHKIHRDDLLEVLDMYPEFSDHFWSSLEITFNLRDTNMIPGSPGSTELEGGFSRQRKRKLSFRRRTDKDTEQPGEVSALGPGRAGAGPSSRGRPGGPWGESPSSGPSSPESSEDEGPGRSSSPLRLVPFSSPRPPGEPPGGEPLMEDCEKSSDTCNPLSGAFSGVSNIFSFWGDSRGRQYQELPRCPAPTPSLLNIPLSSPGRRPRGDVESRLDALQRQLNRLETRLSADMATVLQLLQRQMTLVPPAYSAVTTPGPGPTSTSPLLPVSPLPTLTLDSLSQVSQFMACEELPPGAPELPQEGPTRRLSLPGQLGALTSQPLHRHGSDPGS

Going from `N#Cc1c(Cc2cccc3ccccc23)nn(CCO)c1N` to `CNc1ccc([N+](=O)[O-])cc1-c1nc2ccccc2[nH]c1=O`, the “hERG current change (%, negative = inhibition) at 10uM” value rises from 2.92% to 20.2%.

First: O=C1CCC([N+](=O)[O-])C(c2cc(Br)ccc2F)N1 (centres unmarked)
Second: COc1cc2c(cc1OC)C(C(=O)N1CCCCC1)C(c1ccccc1F)N(C)C2=O (centres unmarked)
The “hERG current change (%, negative = inhibition) at 10uM” value of the first is higher: 18.1% for the first, 9.92% for the second.

Going from `O=C(CC1C(=O)NCCN1Cc1c(F)cccc1Cl)NC1CCCCCC1` (centres unmarked) to `O=C(C1CC(=O)N(c2ccc(F)cc2)C1)N1CCOCC1` (centres unmarked), the “hERG current change (%, negative = inhibition) at 10uM” value rises from -12.2% to 1.27%.

Going from `CCOC(=O)CCNC(C(=O)OCC)c1ccccc1` (centres unmarked) to `CC(C)(C)NC(=O)COC(=O)CCC(=O)c1ccc(F)cc1`, the “hERG current change (%, negative = inhibition) at 10uM” value rises from -1.97% to 12%.

Going from `COc1ccc(C(=O)Nc2ccc(C3(C#N)CCCC3)cc2)cc1` to `COc1ccc(C(=O)Nc2cccc(OC)c2)cc1`, the “hERG current change (%, negative = inhibition) at 10uM” value rises from 5.73% to 27.5%.

First: COc1ccc(OC)c(C2C(C(C)=O)=C(O)C(=O)N2Cc2cccnc2)c1 (centres unmarked)
Second: COc1ccc(OC)c(-n2c(-c3cccc(S(=O)(=O)N(C)C)c3)n[nH]c2=S)c1
The “hERG current change (%, negative = inhibition) at 10uM” value of the first is lower: -4.66% for the first, 1.66% for the second.

First: COc1cccc(Nc2ccc(C(=O)O)cc2N)c1
Second: COc1cccc(C(=O)Nc2ccncc2)c1OC
The “hERG current change (%, negative = inhibition) at 10uM” value of the first is higher: 11.3% for the first, 10% for the second.

Compared with `COc1ccc(CC(NC(C)=O)C(=O)NC2CCN(C(=O)c3ccccc3F)CC2)cc1` (centres unmarked), `COc1ccc(NC(=O)C2CCN(C(=O)c3ccc(OC)cc3)CC2)cc1` is lower in “hERG current change (%, negative = inhibition) at 10uM” value: 24.4% for the first, -72.2% for the second.

First: O=c1c2ccccc2oc2nc(-c3ccco3)n(Cc3ccccc3)c(=O)c12
Second: O=c1c2c3c(sc2n2cnnc2n1Cc1ccccc1)CN(Cc1ccccc1)CC3
The “hERG current change (%, negative = inhibition) at 10uM” value of the first is higher: -9.22% for the first, -39.2% for the second.

First: O=C(NC1CCCC1)C(c1ccsc1)N(C(=O)Cc1cccs1)c1ccccc1 (centres unmarked)
Second: Cc1ccc(C(=O)NCC(=O)N2CCC(Cc3ccccc3)CC2)cc1
The “hERG current change (%, negative = inhibition) at 10uM” value of the first is higher: -0.856% for the first, -30.1% for the second.

First: CCOC(=O)Cc1csc(SCC(=O)/C(C#N)=C(\C)N)n1
Second: CC(=O)OCCNc1cc(Sc2nc3ccccc3[nH]2)c2nonc2c1[N+](=O)[O-]
The “hERG current change (%, negative = inhibition) at 10uM” value of the first is higher: 4.63% for the first, -12.1% for the second.

First: Cc1cc(Cl)ccc1OCCCC(=O)Nc1cccc(-n2cnnn2)c1
Second: CCOc1ccc(NC(=O)CN(C)C(=O)c2ccc(OCc3ccccc3)c(OC)c2)cc1OCC
The “hERG current change (%, negative = inhibition) at 10uM” value of the first is higher: 2.21% for the first, -3.72% for the second.

First: S=c1[nH]nc(-c2ccccn2)n1/N=C/c1ccc(Cl)cc1
Second: COc1cc2ncnc(NCc3ccc(Cl)cc3)c2cc1OC
The “hERG current change (%, negative = inhibition) at 10uM” value of the first is higher: 10.6% for the first, -31.2% for the second.

Compared with `O=C(CCCCl)NC(=S)Nc1ccc(CN2CCOCC2)cc1`, `Cc1cc(N2CCN(C)CC2)nc2ccc(NC(=S)NCCCN3CCc4ccccc4C3)cc12` is lower in “hERG current change (%, negative = inhibition) at 10uM” value: -6.81% for the first, -26.5% for the second.

Compared with `Cc1cccc(OC(C)C(=O)N2CCc3ccccc3C2)c1` (centres unmarked), `Cc1cccc(-n2ccnc2SCC(=O)N2CCCc3ccccc32)c1C` is lower in “hERG current change (%, negative = inhibition) at 10uM” value: -7.36% for the first, -12.7% for the second.

Compared with `Cc1cc2c(c(=O)o1)C(CCC1CCCCC1)C(C#N)=C(N)O2` (centres unmarked), `O=c1[nH]c(NCc2ccccc2)nc2c1CCCC2` is higher in “hERG current change (%, negative = inhibition) at 10uM” value: 3.96% for the first, 7.79% for the second.

Going from `O=C(O)C1c2ccccc2C(=O)N(Cc2ccc(F)cc2)C1c1ccncc1` (centres unmarked) to `O=C(C1=C(O)C(=O)N(Cc2ccco2)C1c1ccccc1)c1cccs1` (centres unmarked), the “hERG current change (%, negative = inhibition) at 10uM” value falls from 11% to 10.7%.

First: CC(C)(Oc1ccc(Cl)cc1)C(=O)N1CCN(C(=O)c2ccco2)CC1
Second: COc1ccccc1NS(=O)(=O)c1cccc(C(=O)N2CCN(C/C=C/c3ccccc3)CC2)c1
The “hERG current change (%, negative = inhibition) at 10uM” value of the first is higher: -14.3% for the first, -34.9% for the second.

Going from `CCCCC1C(=O)N(c2ccccc2)N(c2ccc(O)cc2)C1=O` (centres unmarked) to `Cc1nnc(SCC(=O)NC2CCS(=O)(=O)C2)n1-c1ccccc1` (centres unmarked), the “hERG current change (%, negative = inhibition) at 10uM” value rises from -9% to 5.15%.

First: CCC(C)NC(=O)CCNS(=O)(=O)c1ccc(Br)cc1 (centres unmarked)
Second: COc1ccc(C2C=C(C)Nc3ncnn32)cc1 (centres unmarked)
The “hERG current change (%, negative = inhibition) at 10uM” value of the first is lower: -10.7% for the first, 19.8% for the second.

First: C=CCN1C(=O)/C(=C/c2ccc(Br)s2)C(=O)NC1=S
Second: Cc1cccc(Nc2ncnc3nc[nH]c23)c1C
The “hERG current change (%, negative = inhibition) at 10uM” value of the first is higher: 6.73% for the first, -12.5% for the second.

First: CCC(C)(C)c1ccc(OCCCC[n+]2ccccc2)c(C(C)(C)CC)c1.[Br-]
Second: S=C(Nc1ccc(Nc2ccccc2)cc1)Nc1ccccn1
The “hERG current change (%, negative = inhibition) at 10uM” value of the first is lower: -67.2% for the first, 23.2% for the second.
